Consider ten molecules from the antibiotic and cytotoxicity screens of Wong et al. (2023).

The other results are listed elsewhere or left out.

The assay concerns HSkMC (human skeletal muscle cells). Description: cytotoxicity call (relative viability < 0.9). The following applies: 10 µM.
`C[C@H](CO)N1C[C@H](C)[C@@H](CN(C)C(=O)Nc2ccc(C(F)(F)F)cc2)Oc2ccc(NC(=O)Nc3ccc(C(F)(F)F)cc3)cc2C1=O`: the cytotoxicity call is “inactive”.

Consider `CCNC(=O)C[C@H]1C=C[C@@H](NC(=O)C2CC2)[C@@H](CO)O1`, for which the cytotoxicity call was “inactive”.

As for `C[C@@H]1CN([C@H](C)CO)C(=O)c2cc(NC(=O)C3CCCCC3)ccc2O[C@@H](C)CCCCO[C@H]1CN(C)S(=O)(=O)c1cccs1`, the cytotoxicity call was “inactive”.

Take `C[C@@H]1CCCCO[C@H](CN(C)C(=O)Nc2ccc3c(c2)OCO3)[C@H](C)CN([C@H](C)CO)C(=O)c2cc(NS(=O)(=O)c3ccccc3)ccc2O1`: the cytotoxicity call is “inactive”.

As to `C[C@@H]1CCCCO[C@H](CN(C)S(=O)(=O)c2ccc(F)cc2)[C@H](C)CN([C@@H](C)CO)C(=O)c2cc(NC(=O)Nc3cccc4ccccc34)ccc2O1`, the cytotoxicity call is “inactive”.

`C[C@H](CO)N1C[C@H](C)[C@H](CN(C)Cc2ccccc2)Oc2ccc(NC(=O)Nc3ccc(C(F)(F)F)cc3)cc2C1=O`: the cytotoxicity call is “inactive”.

On to `C=c1nnsc1=C1NC(c2cc(C)on2)=NO1`, for which the cytotoxicity call was “inactive”.

Regarding `C[C@@H]1CN([C@@H](C)CO)C(=O)c2cc(NC(=O)Nc3cccc4ccccc34)ccc2O[C@@H](C)CCCCO[C@@H]1CN(C)C(=O)Nc1ccccc1`, the cytotoxicity call was “inactive”.

As to `COCC(=O)N(C)C[C@@H]1Oc2cc(C#CCN(C)C)ccc2S(=O)(=O)N([C@@H](C)CO)C[C@H]1C`, the cytotoxicity call was “inactive”.

In the case of `COc1ccc(S(=O)(=O)Nc2ccc3c(c2)C(=O)N([C@@H](C)CO)C[C@@H](C)[C@H](CN(C)Cc2ccc(C(F)(F)F)cc2)OCCCC[C@@H](C)O3)cc1`, the cytotoxicity call was “active”.
